# Measurements as given in a collection of fitness landscapes (doi:10.1038/s41467-024-54723-y).
# Over roughly 18,000 sequences, “TetR repression strength (sort-seq, GFP reporter)” has its median near 0.23; the highest 2% begin near 0.68. Some of the results follow.
# Target: TetR (class B, Tn10) (UniProt P04483)
# Test: TetR repression strength (sort-seq, GFP reporter) (relative to tetO2 = 1); higher = stronger repression
# Settings: E. coli
# Method in brief: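 Three independent transformations of E. coli SIG10-MAX were made with a low-copy plasmid library randomizing eight operator positions between a constitutive promoter and sfGFP, with constitutive TetR. Following 5 h at 37 °C in LB plus 50 µg/mL chloramphenicol, 10^6 cells went through FACS into 13 fluorescence bins, and each bin was sequenced by Illumina. Repression strength was defined as the top bin index plus one minus the read-weighted mean bin, divided by the unaltered operator's value. Averages included only members reaching ≥30 reads in all replicates with a CV ≤0.5.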
# UniProt P04483, sequence (P04483 whole entry): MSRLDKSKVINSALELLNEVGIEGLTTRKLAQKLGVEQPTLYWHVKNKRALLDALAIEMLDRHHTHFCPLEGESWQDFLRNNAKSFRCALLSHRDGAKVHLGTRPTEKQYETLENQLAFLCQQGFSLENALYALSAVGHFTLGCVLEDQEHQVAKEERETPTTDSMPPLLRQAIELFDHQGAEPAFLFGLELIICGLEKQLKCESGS
row,Sequence,TetR repression strength
1,TCCCGGTCAGTGGTGGAGA,0.24
2,TCCCCAGCAGTGTGCGAGA,0.179
3,TCCCTGACAGTAATGGAGA,0.0821
4,TCCCGGCGAGTCCGCGAGA,0.325
5,TCCCTCCCAGTGTCGGAGA,0.295
6,TCCCTGTGAGTTGTAGAGA,0.231
7,TCCCTGGTAGTGGAGGAGA,0.101
8,TCCCCTAAAGTCAAAGAGA,0.429
9,TCCCTTCGAGTTTACGAGA,0.464
10,TCCCGTAAAGTGTGTGAGA,0.128
11,TCCCGGTAAGTGAGCGAGA,0.199
12,TCCCTGGGAGTTCGTGAGA,0.297
13,TCCCTACCAGTGTGTGAGA,0.211
14,TCCCAGCTAGTTTGCGAGA,0.165
15,TCCCTGTTAGTGGAGGAGA,0.142
16,TCCCGTAGAGTGTGTGAGA,0.151
17,TCCCGTACAGTTGAAGAGA,0.233
18,TCCCATTCAGTCGTGGAGA,0.352
19,TCCCTCTTAGTTCGAGAGA,0.27

row,Sequence,TetR repression strength
1,TCCCCTCTAGTACAAGAGA,0.55
2,TCCCTGGGAGTTCCGGAGA,0.165
3,TCCCGCTTAGTCCTCGAGA,0.44
4,TCCCTATGAGTTTTTGAGA,0.256
5,TCCCGGGAAGTGGGTGAGA,0.22
6,TCCCTTCGAGTTTTAGAGA,0.572
7,TCCCAATAAGTTTCGGAGA,0.346
8,TCCCCCGTAGTTTCAGAGA,0.496
9,TCCCATGGAGTGGGAGAGA,0.033
10,TCCCCTAGAGTACCAGAGA,0.0608
11,TCCCGTGCAGTTACAGAGA,0.175
12,TCCCGGTGAGTAGGGGAGA,0.198
13,TCCCAGGAAGTGTACGAGA,0.425
14,TCCCTATTAGTCCCAGAGA,0.32
15,TCCCACCGAGTGTTGGAGA,0.286
16,TCCCGGGGAGTCTGCGAGA,0.395
17,TCCCGTGTAGTTTTGGAGA,0.213
18,TCCCCCTCAGTGGCGGAGA,0.127
19,TCCCCGTTAGTGTGTGAGA,0.196

row,Sequence,TetR repression strength
1,TCCCCGACAGTGCTAGAGA,0.65
2,TCCCTTGGAGTATGGGAGA,0.272
3,TCCCAAGGAGTGGTCGAGA,0.05
4,TCCCTGTAAGTTGTTGAGA,0.427
5,TCCCATAAAGTGGAGGAGA,0.178
6,TCCCGAGCAGTGCAGGAGA,0.226
7,TCCCGACGAGTGCCGGAGA,0.292
8,TCCCCAGGAGTAGGCGAGA,0.207
9,TCCCGGTCAGTCAGAGAGA,0.466
10,TCCCTACTAGTTTCCGAGA,0.394
11,TCCCGAGAAGTAGACGAGA,0.15
12,TCCCTCTGAGTCTGTGAGA,0.531
13,TCCCTGGTAGTCCATGAGA,0.277
14,TCCCCGCTAGTAGGCGAGA,0.0667
15,TCCCGTTTAGTTATAGAGA,0.384
16,TCCCCGGAAGTGAAAGAGA,0.0806
17,TCCCTGCTAGTATAGGAGA,0.227
18,TCCCTCAAAGTTAATGAGA,0.507
